Out of some 310,000 compounds screened, about 14,000 (4.5%) showed an effect of 50% or more. Effects have a minus sign here. This is one part of the list.
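Also: peak tail current of the secondary pulse compared with the same well before compound.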

For this assay, the target named is human ether-à-go-go-related gene (hERG) potassium channel (human, UniProt Q12809). The experiment in a line: primary screen, population patch clamp on CHO cells stably expressing hERG.
Chain of human ether-à-go-go-related gene (hERG) potassium channel (Q12809 whole entry, looked up): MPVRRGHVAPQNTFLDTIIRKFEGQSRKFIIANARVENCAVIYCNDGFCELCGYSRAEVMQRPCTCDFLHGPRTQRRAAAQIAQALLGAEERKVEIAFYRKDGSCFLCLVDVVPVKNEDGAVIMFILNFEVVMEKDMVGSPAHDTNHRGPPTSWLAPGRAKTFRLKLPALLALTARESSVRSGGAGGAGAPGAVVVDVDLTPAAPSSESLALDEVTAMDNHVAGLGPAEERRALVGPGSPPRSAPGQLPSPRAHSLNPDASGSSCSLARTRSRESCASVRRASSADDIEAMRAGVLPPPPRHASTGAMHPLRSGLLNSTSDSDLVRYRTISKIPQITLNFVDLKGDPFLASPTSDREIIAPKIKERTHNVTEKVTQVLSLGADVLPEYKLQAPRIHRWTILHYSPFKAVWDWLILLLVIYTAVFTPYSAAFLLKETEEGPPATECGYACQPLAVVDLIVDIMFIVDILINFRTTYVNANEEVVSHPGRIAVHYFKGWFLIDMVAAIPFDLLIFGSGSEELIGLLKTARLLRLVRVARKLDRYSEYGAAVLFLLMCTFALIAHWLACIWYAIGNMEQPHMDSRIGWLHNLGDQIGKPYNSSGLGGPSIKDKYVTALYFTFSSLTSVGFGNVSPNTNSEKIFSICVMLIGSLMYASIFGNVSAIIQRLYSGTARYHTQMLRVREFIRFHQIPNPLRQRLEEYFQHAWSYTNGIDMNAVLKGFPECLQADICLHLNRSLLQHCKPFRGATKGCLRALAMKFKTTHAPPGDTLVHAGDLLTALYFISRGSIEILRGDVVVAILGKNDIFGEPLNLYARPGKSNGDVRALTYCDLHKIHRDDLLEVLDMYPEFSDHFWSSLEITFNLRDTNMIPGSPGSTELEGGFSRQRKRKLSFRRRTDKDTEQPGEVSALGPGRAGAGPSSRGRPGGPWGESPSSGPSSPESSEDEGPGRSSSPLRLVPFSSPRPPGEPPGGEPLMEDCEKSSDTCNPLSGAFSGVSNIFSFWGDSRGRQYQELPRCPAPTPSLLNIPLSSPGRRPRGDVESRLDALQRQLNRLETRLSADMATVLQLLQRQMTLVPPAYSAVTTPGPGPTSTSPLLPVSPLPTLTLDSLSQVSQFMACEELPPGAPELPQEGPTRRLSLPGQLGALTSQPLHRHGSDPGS
For `CCCCC(Sc1nc(C)c(Cc2ccccc2)c(=O)[nH]1)C(=O)O` (stereo not drawn), the “hERG current change (%, negative = inhibition) at 10uM” value was determined as 30%. In the case of `[Cl-].c1ccc(Cc2cc[n+](Cc3ccccc3)cc2)cc1`, the “hERG current change (%, negative = inhibition) at 10uM” value is 4.13%.

Consider `CCOc1ccccc1CN1CCC(N2CCC(C(=O)NC3CC3)CC2)CC1`, for which the “hERG current change (%, negative = inhibition) at 10uM” value came out at 1.53%. Consider `CN1C(=O)C(O)(CC(=O)c2ccc3c(c2)OCO3)c2ccccc21` (stereo not drawn), for which the “hERG current change (%, negative = inhibition) at 10uM” value is -5.06%. With `O=C(CSc1nnnn1-c1ccccc1)NC(=O)Nc1ccc2c(c1)OCCO2` the figure was 13.4%; with `COC(=O)c1c(O)ccc(Oc2ccccc2)c1C(=O)OC`, 8.07%. The result for `CCOCc1c(C(=O)Nc2cc(OCC)c(N3CCOCC3)cc2OCC)oc2ccccc12` reads 6.09%; that for `CCCCCSc1nc2c(cnn2-c2ccccc2)c(=O)[nH]1`, 1.61%. Turning to `O=C(Cc1c[nH]c2ccccc12)Nc1nc2ccccc2[nH]1`, the “hERG current change (%, negative = inhibition) at 10uM” value is listed as -16.2%.

In the case of `COc1ccc(CNc2nc3nc(C)cc(C)n3n2)cc1`, the “hERG current change (%, negative = inhibition) at 10uM” value was -0.868%.

`Cc1ccc(C(=O)Nc2cc3c(cc2Cl)OCCCO3)cc1`: the “hERG current change (%, negative = inhibition) at 10uM” value is 3.17%. With `O=C(NCCc1ccc(C(F)(F)F)cc1)C1CCC(=O)N(CCCN2CCCC2=O)C1` (stereo not drawn) the figure was 13.1%; with `Oc1ccc(Cl)cc1C=Nc1ccc2c3c(cccc13)CC2`, 9.08%. Turning to `Cc1cc(NC(=O)c2ccc(Br)c(S(=O)(=O)N3CCCC3)c2)no1`, the “hERG current change (%, negative = inhibition) at 10uM” value came out at 0.115%. With `CC1CCC(NC(=O)c2ccc3c(c2)OCO3)CC1` (stereo not drawn) the figure was 11.5%. With `CCN(Cc1ccccc1)CC(O)COC(c1ccc(OC)cc1)c1ccc(OC)cc1` (stereo not drawn), the “hERG current change (%, negative = inhibition) at 10uM” value is given as -75.1%. As to `COc1ccc2c(c1)C(=NNC(=O)c1ccccn1)c1cc(OC)ccc1-2`, the “hERG current change (%, negative = inhibition) at 10uM” value is given as 8.44%.

As to `COCCNC(=S)N(CCc1c(C)[nH]c2ccccc12)Cc1ccco1`, the “hERG current change (%, negative = inhibition) at 10uM” value was -16.8%. The result for `O=C(c1ccccc1)c1nn(-c2ccccc2)c2nnc(Cc3ccccc3)c(=O)n12` reads -5.58%; that for `O=c1cc(CSc2ccc([N+](=O)[O-])cc2)nc2sccn12`, -23.3%; that for `C=C(C)c1cccc(C(C)(C)NC(=O)N2CCN(c3ccc(OC)cc3)CC2)c1`, 7.46%.

Regarding `COC(=O)C1(Cc2cc(-c3ccc(Cl)cc3)no2)CCN(C(=O)OC(C)(C)C)CC1`, the “hERG current change (%, negative = inhibition) at 10uM” value is on record as -22.8%.

With `Fc1ccccc1Sc1ccccc1CNC1=NCCN1.I`, the “hERG current change (%, negative = inhibition) at 10uM” value is -1.38%.

Regarding `O=CN1CCN(S(=O)(=O)c2ccc(Cl)c(C(=O)O)c2)CC1`, the “hERG current change (%, negative = inhibition) at 10uM” value is -2.45%. Take `O=C(Nc1ccccc1)OCc1cn(-c2ccc(Cl)cc2)nn1`: the “hERG current change (%, negative = inhibition) at 10uM” value stood at 22.3%. Turning to `CCOC(=O)Nc1cc(C(=O)OC)cc(C(=O)OC)c1`, the “hERG current change (%, negative = inhibition) at 10uM” value is 8.34%. The result for `CC(CS(=O)(=O)c1ccc2c(c1)NC(=O)CS2)C(=O)N1CCN(c2cccc(Cl)c2)CC1` (stereo not drawn) reads -52.1%.

As for `CC(C)NS(=O)(=O)c1ccc(NC(=O)C(C)OC(=O)CCC(=O)c2cccs2)cc1` (stereo not drawn), the “hERG current change (%, negative = inhibition) at 10uM” value came out at 10.3%. As for `O=C(O)c1ccccc1C(=O)NNc1ccc(Cl)cc1`, the “hERG current change (%, negative = inhibition) at 10uM” value is recorded as 8.27%. As for `N#C/C(=C\c1c(N2CCC(C(N)=O)CC2)nc2ccccn2c1=O)C(=O)NCc1ccco1`, the “hERG current change (%, negative = inhibition) at 10uM” value was -15.4%. The result for `COC(=O)Cn1c(Cc2ccccc2)nc2ccccc21` reads -4.75%. The result for `Cc1ccc(S(=O)(=O)NCCN2CCN(S(=O)(=O)c3ccccc3Cl)CC2)cc1` reads -18%; that for `OC1(c2nc3ccccc3[nH]2)CCCCC1`, 13.8%; that for `CCC(C)NS(=O)(=O)c1ccc(OCC(=O)NCc2ccc3c(c2)OCO3)cc1` (stereo not drawn), -21.5%. Turning to `Cc1ccc2[nH]c(O)c(N=NC(N)=S)c2c1`, the “hERG current change (%, negative = inhibition) at 10uM” value is 19.3%. With `Fc1ccc(-n2c(-c3ccco3)nc3nc4ccccc4nc32)cc1` the figure was 5.91%; with `CCOc1ccc(NC(=O)CC2C(=O)N(c3ccccc3)C(=O)N2Cc2ccco2)cc1` (stereo not drawn), -9.42%; with `O=C(NCC(=O)N1CCCCCCC1)c1ccc(Br)o1`, 3.02%. With `CC1CCN(CC(C)OC(=O)c2ccco2)CC1.Cl` (stereo not drawn), the “hERG current change (%, negative = inhibition) at 10uM” value is listed as 16.1%. As to `COc1cccc(CNc2nc3nc4c(c(=O)n3[nH]2)CCC4)c1`, the “hERG current change (%, negative = inhibition) at 10uM” value is -8.37%.

Regarding `COC(=O)c1[nH]c2c(c1C)C(=O)CC(c1ccc(OC)c(OC)c1)C2` (stereo not drawn), the “hERG current change (%, negative = inhibition) at 10uM” value was -0.262%. With `CC(=O)Cc1nsc(NC(=O)c2cc(-c3cccc(C(F)(F)F)c3)oc2C)n1`, the “hERG current change (%, negative = inhibition) at 10uM” value is on record as 4.23%. With `CCn1c(=O)c2cc(C(=O)NCCOC)sc2c2ccccc21` the figure was -8.05%. With `CCOC(=O)C1(C)NC(c2ccccc2F)C2C(=O)N(c3cccc(C(C)=O)c3)C(=O)C21` (stereo not drawn) the figure was 12.3%; with `CSCCC(NC(=O)c1ccco1)C(=O)OC(C)C(=O)NC(=O)NC1CCCCC1` (stereo not drawn), -6.77%. For `COc1ccc(NC(=O)c2ocnc2C)cc1OC`, the “hERG current change (%, negative = inhibition) at 10uM” value was 13%. With `COCCCNC(=S)NC(=O)c1ccccc1` the figure was 20.5%; with `COc1ccc(C(C)(C)NC(=O)C2CCC(=O)N(C3CCCC3)C2)cc1OC` (stereo not drawn), 10.3%; with `COC(=O)CNC(=O)c1ccccc1C`, 11.2%.

As to `CCOc1ccc(C(=O)Nc2cc(S(=O)(=O)Nc3ccccc3Cl)ccc2N2CCOCC2)cc1`, the “hERG current change (%, negative = inhibition) at 10uM” value is recorded as 6.95%.

Consider `O=C1CN(C(=O)COc2ncnc3ccccc23)c2ccccc2N1`, for which the “hERG current change (%, negative = inhibition) at 10uM” value is listed as 0.41%. The result for `O=C(CCc1nnc(Cc2ccc3c(c2)OCO3)o1)NC(c1ccccn1)C(F)(F)F` (stereo not drawn) reads 17.4%; that for `O=C(Cn1c(=O)[nH]c2ccccc2c1=O)Nc1cccnc1`, 7.83%.

Turning to `NC(=O)c1ccc(C(F)(F)F)n(Cc2ccccc2Cl)c1=O`, the “hERG current change (%, negative = inhibition) at 10uM” value worked out at 11.9%. The result for `CCN(C(=S)Nc1ccc(Oc2ccccc2)cc1)c1ccccc1` reads 38%; that for `N/C(=N\OC(=O)Cc1cccs1)c1ccc(Br)cc1`, -0.762%. For the compound `O=C(O)c1ccccc1COc1ccccc1Cl`, the “hERG current change (%, negative = inhibition) at 10uM” value came out at 12.5%. The result for `COC(=O)C1=C(C)N(CCCC(=O)O)C(=O)NC1c1cccc2ccccc12` (stereo not drawn) reads 5.92%; that for `COc1cccc(-n2cnc3sc4c(c3c2=O)CCC4)c1`, -14%; that for `CSc1ccccc1C(=O)NCCc1ccc(S(=O)(=O)N2CCCCC2)cc1`, -25.2%. Consider `Cc1ccc(C2CC(c3ccco3)n3ncnc3N2)cc1` (stereo not drawn), for which the “hERG current change (%, negative = inhibition) at 10uM” value is -9.19%. The result for `CC(C)C1O/C(=N/C(=O)Nc2ccc(Cl)c(Cl)c2)NC1=O` (stereo not drawn) reads 4.65%; that for `NC(=O)c1cc(N=Nc2c(N)[nH]n(-c3c(Cl)cc(Cl)cc3Cl)c2=O)ccc1Cl`, 13.2%.

Regarding `COc1cc(/C=C2\C(=N)N3N=C(S(C)(=O)=O)SC3=NC2=O)ccc1OCCOc1ccc(C)cc1`, the “hERG current change (%, negative = inhibition) at 10uM” value is 19.7%. The result for `CC(C)(CCC(=S)N1CCOCC1)C1CCCCC1` reads 12%; that for `Cc1nc2ccccc2cc1C(=O)N/N=C/c1ccccc1[N+](=O)[O-]`, -6.56%. The result for `C=CCc1ccc(OCc2ccc(C(=O)OC)o2)c(OC)c1` reads -12.1%; that for `O=C(NC(=S)Nc1ccc2oc(=O)ccc2c1)c1cccc(Cl)c1`, 4.11%.

As for `Cc1ccc(NC(=O)Nc2cccc(Cl)c2)c(C(=O)O)c1`, the “hERG current change (%, negative = inhibition) at 10uM” value was 19.6%. The result for `CC1CC(C)CN(C(=S)NC2CCCCC2)C1` (stereo not drawn) reads -6.05%. With `COc1ccc(N=NC2C(=O)N(c3ccccc3)N=C2C)cc1` (stereo not drawn) the figure was 29%; with `O=C(c1ccc(S(=O)(=O)c2ccccc2)cc1)N1CCc2ccccc2C1`, 14.5%; with `CCOC(=O)Oc1ccc2c(c1)C(C)=CC(C)(C)N2C(=O)OCC`, 13.1%. With `CC(=O)c1ccc(N2CCN(C(=O)C3CCN(S(=O)(=O)c4ccc5c(c4)CC(C)N5C(C)=O)CC3)CC2)cc1` (stereo not drawn) the figure was -1.37%; with `CCOC(=O)C1=NOC(CNC(=O)c2c(-c3ccccc3Cl)noc2C)C1` (stereo not drawn), 15.8%. On to `Cc1ccc(SCc2cc(=O)n3ccsc3n2)c(C)c1`, for which the “hERG current change (%, negative = inhibition) at 10uM” value was -30.5%.

With `NC(=O)Nc1ccc(F)cc1`, the “hERG current change (%, negative = inhibition) at 10uM” value is given as -5.1%.

As to `O=C(C(Cc1ccccc1)n1cccc1)N1CCCCC1` (stereo not drawn), the “hERG current change (%, negative = inhibition) at 10uM” value is listed as 2.03%. The result for `O=C1C(Oc2ccccc2)C(c2cccs2)N1Cc1ccc2c(c1)OCO2` (stereo not drawn) reads -2.74%; that for `O=S(=O)(c1ccc(Cl)cc1)c1cnc2ccccc2n1`, 11.9%. The result for `COC(=O)C(NS(=O)(=O)c1ccc(N2CCCC2=O)cc1)c1ccccc1` (stereo not drawn) reads 1.17%; that for `CCN(C(=O)CN1C(=O)c2ccc([N+](=O)[O-])cc2C1=O)C1CCCCC1`, -9.73%. Take `CNC(=O)c1cc(C(=O)c2ccccc2Br)c[nH]1`: the “hERG current change (%, negative = inhibition) at 10uM” value was found to be 9.8%.

Turning to `Cc1c(OC(C)C(=O)NCCCN2CCOCC2)ccc2c3c(c(=O)oc12)CCCC3` (stereo not drawn), the “hERG current change (%, negative = inhibition) at 10uM” value is reported as -1.57%. For the compound `COc1ccc(N2CCN(C(=O)CCCSc3nc4ccccc4[nH]3)CC2)cc1`, the “hERG current change (%, negative = inhibition) at 10uM” value is recorded as -62.3%.

On to `O=C(NCC1CCCO1)/C(=C/c1ccccc1)NC(=O)c1ccccc1` (stereo not drawn), for which the “hERG current change (%, negative = inhibition) at 10uM” value is on record as -6.25%. With `CCOC(=O)N1CCN(C(=O)COC(=O)CSc2cc(C)c(Br)cc2C)CC1` the figure was -38.5%. The result for `C#CCN1C(=O)S/C(=C\c2cc3c(cc2OC)OCO3)C1=O` reads -18.2%. For `Cc1c(NC(=O)Nc2cccc(C#N)c2)c(=O)n(-c2ccccc2)n1C`, the “hERG current change (%, negative = inhibition) at 10uM” value was found to be 4.79%.

Regarding `CCCn1c(SCC(=O)N2N=C3/C(=C/c4ccc(OC)cc4)CCCC3C2c2ccc(OC)cc2)n[nH]c1=O` (stereo not drawn), the “hERG current change (%, negative = inhibition) at 10uM” value came to 9.91%.
